Values come from read counts of a selection and are noisy.
Test system: NB7
Experiment: fold depletion of shRNA, plasmid library share / infected cells without Dox share (9 days) (ratio); higher = more depleted after infection (more toxic, leaky expression from a Tet-inducible vector; NB7 is a neuroblastoma line without caspase-8)
[1] = shRNA pool: CD95L ORF + CD95L 3'UTR + Venus libraries
[2] = shRNA pool: CD95 ORF + CD95 3'UTR + Venus libraries
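Also: shRNA barcodes quantified by deep sequencing of PCR amplicons from cellular DNA, counts expressed as percent of each subpool, ratio averaged over two biological duplicates.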

Row | Sequence | fold depletion of shRNA [1] | fold depletion of shRNA [2]
1 | CCTGGTGAACCGCATCGAGCT | 0.962 | 0.943
2 | CCTGTCCAACCTCTGTGCCCA | 3.95 | –
3 | CCTGTCCTCCAGGTGAAAGGA | – | 2.45
4 | CCTGTGTCTCCTTGTGATGTT | 1.07 | –
5 | CCTTACTACTATCCTACGTTT | – | 0.905
6 | CCTTAGAAATTCTAGCCTGGT | – | 0.578
7 | CCTTCAATTACCCATATCCCC | 0.923 | –
8 | CCTTGAGACCACAGGGTTCAA | 0.921 | –
9 | CCTTGCACCAAATGTGAACAT | – | 1.63
10 | CCTTGCTACCTCAAGGGGGAC | 2.05 | –
11 | CCTTGGTAGGATTGGGCCTGG | 0.78 | –
12 | CCTTGGTGCTCATCTTAATGG | – | 4.33
13 | CCTTGTGATCAATGAAACTGG | 1.21 | –
14 | CCTTGTGATGTTTTTCATGGT | 1.94 | –
15 | CCTTGTGTTTGGAATTATAAA | – | 0.69
16 | CCTTTTAACTCACCTCTCAAG | 2.58 | –
17 | CCTTTTGCTGAAATATCAGTT | – | 0.998
18 | CGAAAATGTTCAATAATGTCC | – | 1.11
19 | CGAAAGAATGGTGTCAATGAA | – | 0.766
20 | CGAAGGCTACGTCCAGGAGCG | 0.404 | 0.417
21 | CGACAACCACTACCTGAGCTA | 1.93 | 1.22

Row | Sequence | fold depletion of shRNA [1] | fold depletion of shRNA [2]
22 | CGACAAGCAGAAGAACGGCAT | 1.07 | 1.07
23 | CGACACCCTGGTGAACCGCAT | 1.9 | 2.06
24 | CGACCACATGAAGCAGCACGA | 1.16 | 1.24
25 | CGACCACTACCAGCAGAACAC | 1.34 | 1.59
26 | CGACGGCAACTACAAGACCCG | 0.734 | 1.16
27 | CGACGGCCCCGTGCTGCTGCC | 0.325 | 0.391
28 | CGACGTAAACGGCCACAAGTT | 2.27 | 3.35
29 | CGACTTCAAGGAGGACGGCAA | 1.64 | 1.76
30 | CGACTTCTTCAAGTCCGCCAT | 2.37 | 2.38
31 | CGAGAAGCGCGATCACATGGT | 1.12 | 0.95
32 | CGAGAATGTTGTATTCAGTGA | 2.62 | –
33 | CGAGAGTCTACCAGCCAGATG | 3.03 | –
34 | CGAGCTGAAGGGCATCGACTT | 3.54 | 1.78
35 | CGAGCTGGACGGCGACGTAAA | 1.09 | 0.609
36 | CGAGGACGGCGGCGTGCAGCT | 0.256 | 0.292
37 | CGAGGAGCTGTTCACCGGGGT | 0.897 | 0.678
38 | CGAGGGCGACACCCTGGTGAA | 0.734 | 0.534
39 | CGAGGGCGAGGGCGATGCCAC | 0.701 | 0.874
40 | CGAGGGCGATGCCACCTACGG | 0.94 | 1.49
41 | CGAGGTGAAGTTCGAGGGCGA | 0.907 | 0.932
42 | CGATCACATGGTCCTGCTGGA | 2.5 | 1.83

Row | Sequence | fold depletion of shRNA [1] | fold depletion of shRNA [2]
43 | CGATGCCACCTACGGCAAGCT | 1.3 | 1.1
44 | CGCACCATCTTCTTCAAGGAC | 3.27 | 1.85
45 | CGCAGCAGCTACCTGGGGGCA | 0.191 | –
46 | CGCATCGAGCTGAAGGGCATC | 0.412 | 0.452
47 | CGCCACAACATCGAGGACGGC | 0.756 | 1.38
48 | CGCCACCACTGCCTCCACTAC | 10.6 | –
49 | CGCCACCGCCACCACTACCAC | 1.12 | –
50 | CGCCATGCCCGAAGGCTACGT | – | 1.59
51 | CGCCCGCTACCCCGACCACAT | 0.773 | 1.44
52 | CGCCCTGAGCAAAGACCCCAA | 1.86 | 1.13
53 | CGCCGACAAGCAGAAGAACGG | 1.06 | 0.985
54 | CGCCGACCACTACCAGCAGAA | 1.09 | 0.923
55 | CGCCGAGGTGAAGTTCGAGGG | 0.876 | 1.17
56 | CGCCGCCGGGATCACTCTCGG | 0.66 | 1.13
57 | CGCCGGGATCACTCTCGGCAT | 1.3 | 1.96
58 | CGCGATCACATGGTCCTGCTG | – | 0.892
59 | CGCGCCGAGGTGAAGTTCGAG | 1.55 | 0.74
60 | CGCTACCCCGACCACATGAAG | – | 1.07
61 | CGCTGAAGAGCCAACATATTT | – | 2.48

— the supplement of paper PMC5655136
